{"source": "PubChem BioAssay AID1240", "about": "(Sanford-Burnham Center for Chemical Genomics, 2008)", "note": "In all, about 50,000 compounds went through this assay and about 800 (1.6%) showed an effect of 50% or more. The list shows a part of the results. Peptide text beside a SMILES is read from it. * marks the point of attachment. Tos = Cc1ccc(S(=O)(=O)*)cc1"}
{"target": "Bcl-2-like protein 10 (Homo sapiens) (UniProt Q9HD36)", "sequence (Q9HD36 whole entry, looked up)": "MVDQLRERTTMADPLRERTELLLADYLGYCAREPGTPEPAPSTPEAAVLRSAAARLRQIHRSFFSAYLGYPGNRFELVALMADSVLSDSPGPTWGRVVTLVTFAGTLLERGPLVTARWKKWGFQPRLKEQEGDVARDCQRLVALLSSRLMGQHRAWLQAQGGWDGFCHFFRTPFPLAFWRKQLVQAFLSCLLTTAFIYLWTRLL", "test": "TR3 peptide-Bcl-B binding displacers, biochemical primary FP assay, phenotype converters (AID 1240);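 further: 0% = Bcl-B with tracer peptide and DMSO and 100% = tracer peptide lacking Bcl-B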", "conditions": "GST-Bcl-B / FITC-TR3 peptide fluorescence polarization; stronger effect = higher value; compound at 3.75 mg/L", "units": {"displacement": "%"}}
{"smiles": "C=CCOc1c(Cl)cc(/C=C2/C(=O)NN(c3ccc(Br)cc3)C2=O)cc1OC", "displacement": 5.1}
{"smiles": "COc1cc(NC(=O)c2cccs2)ccc1NC(=O)c1cc2ccccc2o1", "displacement": 3.2}
{"smiles": "CC1CC(=O)NN=C1c1ccc(N2CCOCC2)c([N+](=O)[O-])c1", "note": "(centres undefined)", "displacement": -1.7}
{"smiles": "FC(F)(F)c1ccc2nnc(-c3ccc(Cl)cc3)n2c1", "displacement": -6.3}
{"smiles": "CCNC(=O)CNC(=O)CNS(=O)(=O)c1ccc(C)cc1", "note": "(Tos-Gly-Gly-NHEt)", "displacement": 3.5}
{"smiles": "CCN(CC)CCN1C(=O)C(O)=C(C(=O)/C=C/c2ccccc2)C1c1ccc(OC)c(OC)c1", "note": "(centres undefined)", "displacement": -8.4}
{"smiles": "CCOC(=O)C1=C(C)N=c2s/c(=C\\c3ccc(Br)o3)c(=O)n2C1c1ccc(F)cc1", "note": "(centres undefined)", "displacement": 11.2}
{"smiles": "C=CC(=O)NC12CC3CC(CC(C3)C1)C2", "displacement": 5.3}
{"smiles": "CCCCNC(=O)C(=O)NCCCO", "displacement": 7.5}
{"smiles": "CC(=O)c1ccc(NC(=O)c2ccc(-c3ccc([N+](=O)[O-])cc3)o2)cc1", "displacement": 7.5}
{"smiles": "COc1ccc(/C(C)=N/NC(=O)CSc2nc(C)cc(C)n2)cc1OC", "displacement": 11.5}
{"smiles": "CCCN(CCC)C(=O)c1ccccc1[N+](=O)[O-]", "displacement": 14.3}
{"smiles": "Cc1ccc(-c2nc3ncccc3o2)cc1NC(=O)C(C)C", "displacement": -2.9}
{"smiles": "CC1=NN(c2ccc(S(N)(=O)=O)cc2)C(=O)/C1=C\\c1ccc(-c2cc([N+](=O)[O-])ccc2Cl)o1", "displacement": -2.3}
{"smiles": "Nc1nncn1C(=O)COc1ccccc1", "displacement": 10.8}
{"smiles": "COc1ccc(Br)cc1/C=C1/SC(=S)N(c2cccc(C(F)(F)F)c2)C1=O", "displacement": 13.7}
{"smiles": "O=C(O)c1cccc(S(=O)(=O)N(CCO)CCO)c1", "displacement": -5.2}
{"smiles": "O=C(c1cc(Cl)ccc1[N+](=O)[O-])N1CCN(c2cccc(Cl)c2)CC1", "displacement": -9.3}
{"smiles": "C/C(=N\\NC(=O)c1cc(-c2ccccc2)n[nH]1)c1cccc([N+](=O)[O-])c1", "displacement": -6}
{"smiles": "Cc1ccc(NC(=O)C2C3CC/C=C\\CCC32)cc1", "note": "(centres undefined)", "displacement": -1.8}
{"smiles": "Cc1ccc(C(C)C)c(OCC(=O)Nc2cc(C(F)(F)F)ccc2Cl)c1", "displacement": 5.7}
{"smiles": "COC(=O)c1ccc(-c2ccc(/C=C3/SC(=S)N(C)C3=O)o2)cc1", "displacement": 8.3}
{"smiles": "CCOC(=O)/C(C#N)=C/Nc1ccc2ccccc2c1", "displacement": 15.1}
{"smiles": "CCOC(=O)C1=C(C)N=c2s/c(=C\\c3cc(Br)c(O)c(OC)c3)c(=O)n2C1c1ccc(OC)c(OC)c1", "note": "(centres undefined)", "displacement": -85.1}
{"smiles": "Cc1ccc(S(=O)(=O)Nc2ccccc2C=Nc2c(C)n(C)n(-c3ccccc3)c2=O)cc1", "displacement": -6}
{"smiles": "CCOC(=O)c1c(NC(=O)CNc2ccc(C)cc2)sc2c1CC(C)(C)OC2", "displacement": -10.6}
{"smiles": "CCOc1ccc(NC(=O)C(CC(=O)O)Cc2ccccc2)cc1", "note": "(centres undefined)", "displacement": 7.9}
{"smiles": "N/C(=N\\OC(=O)COc1ccc(Br)cc1)c1ccncc1", "displacement": 12.2}
{"smiles": "CCSc1nnc(NC(=O)COC(=O)C(CCSC)NC(C)=O)s1", "note": "(centres undefined)", "displacement": -5.7}
{"smiles": "CN(CC(O)c1cccc(O)c1)C(=O)c1ccccc1", "note": "(centres undefined)", "displacement": -7.7}
{"smiles": "Cc1nc(NC(=O)c2ccc(Cl)cc2[N+](=O)[O-])sc1C", "displacement": -10.4}
{"smiles": "COc1ccc(/C(C)=N\\OCc2nc3c4c5c(sc4ncn3n2)CCCC5)cc1OC", "displacement": 1.2}
{"smiles": "CCOC(=O)c1cc(CC)sc1NC(=O)c1cccc(OCC)c1", "displacement": -6.4}
{"smiles": "COc1ccc(C(=O)N/C(=C\\c2ccc(-c3cccc([N+](=O)[O-])c3)o2)C(=O)NCCCN2CCOCC2)cc1", "displacement": 4.3}
{"smiles": "COc1ccc(C)cc1NC(=O)C(C)Oc1ccc(Cl)cc1Cl", "note": "(centres undefined)", "displacement": -2.7}
{"smiles": "O=C(Nc1ccc2nn(-c3ccccc3)nc2c1)c1ccc(Cl)c([N+](=O)[O-])c1", "displacement": 9.6}
{"smiles": "CC(=O)NC1=NC(=O)/C(=C\\c2ccc(-c3ccc(C(=O)O)cc3)o2)S1", "displacement": -27}
{"smiles": "Cc1ccc(/C=C/C(=O)c2c(C)cc(C)[nH]c2=O)cc1", "displacement": 6.8}
{"smiles": "CC(C)Oc1ccc(C(=O)NCc2cccnc2)cc1", "displacement": -7.2}
{"smiles": "CC(=O)/C=C1\\NC(C)(C)Cc2ccccc21", "displacement": -1.7}
{"smiles": "N/C(=N\\OC(=O)c1ccc(I)cc1)c1ccccc1", "displacement": -9.3}
{"smiles": "O=C(COc1ccc(Cl)cc1)Nc1ccc(I)cc1Cl", "displacement": 4}
{"smiles": "Cc1cccc(NC(=O)C(=O)NCC(C)O)c1C", "note": "(centres undefined)", "displacement": -12.3}
{"smiles": "Cc1ccc(N(CC(O)CN2CCCCC2)S(=O)(=O)c2ccccc2[N+](=O)[O-])cc1", "note": "(centres undefined)", "displacement": 5.6}
{"smiles": "O=C(Nc1ccc2ccccc2c1)c1cccc(Cl)c1Cl", "displacement": 13.4}
{"smiles": "O=C(COc1ccc2ccccc2c1)N1CCN(S(=O)(=O)c2ccccc2)CC1", "displacement": -0.2}
{"smiles": "Cc1cc(=O)oc2cc(OCc3ccc(Br)cc3)ccc12", "displacement": 3.1}
{"smiles": "O=C1CC(N2CCC(O)CC2)C(=O)N1c1ccc(I)cc1", "note": "(centres undefined)", "displacement": -4.9}
{"smiles": "COC(=O)c1c(NC(=O)c2cnccn2)sc2c1CCCCC2", "displacement": 5}
{"smiles": "CN1C(=O)/C(=C/c2ccc(OC(=O)c3ccc(F)cc3)cc2)SC1=S", "displacement": -2.1}
{"smiles": "Clc1cccc(OCCCCCn2ccnc2)c1", "displacement": 7.9}
{"smiles": "CCCCN(CCCC)C(=O)c1ccccc1Cl", "displacement": -2.9}
{"smiles": "CN(C)c1cccc(C(=O)Nc2cc(Cl)cc(Cl)c2)c1", "displacement": -5.3}
{"smiles": "COc1ccc(CCN(C(=O)/C=C/C(=O)O)C2CC(=O)N(c3ccccc3)C2=O)cc1", "note": "(centres undefined)", "displacement": -4.9}
{"smiles": "CC(=O)NC1=C(N(C)C)C(=O)c2ccccc2C1=O", "displacement": -4}
{"smiles": "CC(=O)Nc1ccc(S(=O)(=O)Nc2ccc(C(=O)Nc3nccs3)cc2)cc1", "displacement": 7.5}
{"smiles": "CCOC(=O)C1=C(C)N=c2s/c(=C\\c3sccc3C)c(=O)n2C1c1cc(OC)ccc1OC", "note": "(centres undefined)", "displacement": 10}
{"smiles": "COc1ccc(OC)c(-n2c(O)cnc2Nc2nc(C)cc(C)n2)c1", "displacement": 5.7}
{"smiles": "CCC12c3ccccc3C(c3ccccc31)C1C(=O)N(c3ccc(C)c(Cl)c3)C(=O)C12", "note": "(centres undefined)", "displacement": -11.7}
{"smiles": "CCOc1cc(C2Nc3ccccc3C(=O)N2c2ccc(Cl)cc2)ccc1O", "note": "(centres undefined)", "displacement": 4.5}
{"smiles": "O=C1OC(c2ccccc2F)=N/C1=C\\c1cccc(I)c1", "displacement": -0.4}
{"smiles": "NS(=O)(=O)c1ccc(NC(=S)Nc2ccccc2)cc1", "displacement": 4.1}
{"smiles": "COc1ccc(NC(=O)C2(C)CC3C=CC2C3)cc1", "note": "(centres undefined)", "displacement": 4.7}
{"smiles": "COc1ccc(N(CC(=O)Nc2ccc(C)c(C)c2)S(C)(=O)=O)cc1Cl", "displacement": -4}
{"smiles": "COc1ccc(/C=C/C(=O)NCc2ccc(Cl)cc2)cc1OC", "displacement": -14.2}
{"smiles": "C/C(=N\\NC(=O)c1ccccn1)c1ccc([N+](=O)[O-])cc1", "displacement": 5.8}
{"smiles": "Oc1c(Cl)cc(Cl)cc1C=Nc1cccc(C(F)(F)F)c1", "displacement": 2.4}
{"smiles": "O=C(Nc1ccc(C(=O)N2CCOCC2)cc1)Nc1cccc2ccccc12", "displacement": -7.6}
{"smiles": "O=C(O)CNS(=O)(=O)c1ccc2c(c1)C(=O)c1cc(S(=O)(=O)NCC(=O)O)ccc1-2", "displacement": -0.6}
